Sequences with one replicate were seen in a single cluster, so their values are uncertain.
System: ATP
Assay: switch fluorescence ratio, 500 uM ATP over buffer (Cy3 cluster intensity, sum of 5 cycles each) (fold (ratio)); higher = stronger signal-on switching upon ATP binding; sequences stand for … in TCGTCGGCAGCGTCAGATGTGTATAAGAGACAGTTTTTTTTTTTTTTTTTTTTTTTTT…TC
Conditions: aptamer strand: ATP DNA aptamer (quencher-CACCTGGGGGAGTATTGCGGAGGAAGG + anchor), 100 nM annealed; ATP concentration: 500 uM; one replicate
Outline: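 Per cluster, summed Cy3 intensity from the target cycles was divided by that from the buffer cycles to give the fluorescence ratio, then averaged per switch-domain sequence. Clusters outside 100-1000 RFU were excluded. The Cy3-labelled switching-strand clusters, on a modified Illumina MiSeq flow-cell, were annealed to 100 nM quencher-labelled ATP aptamer and imaged in selection buffer, then after 15 min with 500 uM ATP at 22 °C, for five cycles with NaOH stripping and re-annealing between them.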
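Further: ATP exposure 15 min at 22 °C before imaging.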

Sequence	switch fluorescence ratio
TTTAGCGCGC	1.02
AATCTACCAT	1.02
TCCCCCGGGG	1.78
ACGCTAAACT	1.71
TCAGATTCAG	1.03
CTCTTCTTAT	0.993
GTGCTAGGGG	1.01
CCTGCACTGT	1.15
GAGCGTCTAA	0.966
TGGACTGGAG	0.969
GGGACTGTTG	0.992
GCAGCAGAAT	1.15
TGCCTTGTAG	0.986
TTCTGGTCGC	1.02
AGCATAGATC	1.03
GACCACCCGT	1.01
ATGATAGCGA	1.03
TCTAAATACT	1.38
CGATAACTTG	0.974
GCGTCGTTCT	1.03
CGTTAATGCA	1
ATGGAATCAT	0.947
GTGGCGCGGC	0.969
CCTACTACAT	1.13
AATACATTTC	1.06
TAAAGAGTTT	0.953

Sequence	switch fluorescence ratio
CTGTTCGTCG	1
TCGGTCTAAT	0.987
GCATGTACCT	1.28
AAGGAGGT	0.964
TAAAGATCAG	0.952
GTTGAAGCTT	0.971
TGGACGGGAT	0.967
CATTTAAATG	0.999
CGTGGGGTAC	1.1
TAGATATGTC	0.988
TAAGTGGAGC	1.01
GGAGTCCTTT	1.01
ATTACTGAAC	1.19
ATGCTTTAGC	0.932
GGCCGTCGGG	1.03
CAACCTCAAG	1.07
AACAGTTCAG	0.996
TGCTCCTTGT	0.977
ACCCCCCATT	1.31
ATTCTTAGTT	1.03
GAAGTGGGCA	0.977
CGTCGCGCGC	1.06
ATTCAGATGC	0.973
ACTACAGTCT	1.08
ACGGGGCATG	0.978
TCGTGGATG	1

Sequence	switch fluorescence ratio
AAAATAATA	0.981
AAGGAATAGA	0.951
GACTCGCGCC	1.61
TAGTCCACGG	1.03
AAGGAGCATC	1.08
GAGGAAGAGA	1.01
GGCTTCACAC	1.06
ATGGTTAAAC	1.02
AGAGAATAC	1.16
AGTGTCAAC	0.966
CCTCCTCGAT	3.57
ATAATCCCTG	1.06
GGATGGTAGA	1
AGAACAGGA	1.06
CCCCGGGATT	1.14
CGGATGCAAG	0.975
ACAATGATCT	1
CGATGTGAGC	1.06
AGTGATGCTG	1.03
TTGACCACCG	1.06
TTCTGACTTG	1.01
GACTCATATG	1.02
CCGTCCGGCC	1.3
TGGCTGCAT	1.47
TGTGGTCCAC	0.971
CTAATACTAC	1.17

Sequence	switch fluorescence ratio
GCTAAACCAT	1.02
AGCGTGTGGT	0.995
GATTGTTTGG	0.991
TATTACTAA	1
TCAGTATATA	0.969
ACCTCAATCT	1.13
AACCAACAAT	1.05
GAAGGGGTA	1.11
ACTATGTTGT	0.978
AACAAGGCA	1.01
GCAAGCGTAG	1.02
TTGTTTGTGG	1.01
CGTATGAGAC	1.04
GGTTGCTCAG	0.973
ACTGTCTGCT	1
TACCGATGTT	1.05
GCGTACCATA	1.06
ACATGAGGAA	0.959
TAGGGGCATA	1.04
CGGGCTACCC	0.954
AACTATTAAT	1.04
AGTATCGACT	0.977
TAGGACGAAA	1.13
ACACAGAA	1.03
GCTACCTCGC	1.22
CCTGCAGAGT	1.11

Sequence	switch fluorescence ratio
CAGGGAGCGT	0.997
TTGCACTATT	1.15
GAATTTACGC	1.06
AATGCGCATA	1.03
GGACGCTTGT	0.969
ATGGTGTCAC	0.998
CAAGAACGGG	1.01
AAGGCTATTA	1
TTCACTAACT	1.09
TTACGCAAGA	4.05
ATCGGAAGAT	0.971
GTGTTACCCG	1.04
AGTCTGTGTT	0.942
GTTCTGATGG	1.05
GCTAGACTCT	1.16
ATTGGTGATG	0.982
CGTTTAGAA	1.03
GCGAGTAAAG	0.985
GATGTTGG	0.965
TGGATTAATT	1.01
GATAGCGATG	1.02
GTGATCGCCT	0.969
ATTAGCTCGA	1.02
TGGCATGAGA	1.03
GAGGGCTGTA	1.07
TGCTCTGTAA	2.44

Sequence	switch fluorescence ratio
AAAGTAGATT	1.01
CCCGGGAACA	1.14
AAGGGGCTGC	1.05
TAGGGCTAAG	1.04
CAGTTAGTTT	0.96
TCCCGCAGGG	1.01
CTACGGGTCA	1.02
TTCATTAAGC	1.04
AAGTTGAGCC	1.03
CTAAAAGGGC	0.945
TATCCACGTA	1.17
ATTTGTTAG	1
AGACAAGCAA	2.05
ATTATGGTAC	1.06
ACATGGTTG	1.04
TTGTGTCCC	0.97
AAATGGCTTT	0.998
AGATCACTT	1.1
GGAGTAGG	1.01
CCATCTTCA	1
GCTTGCGCTA	1.03
CTGCCAACGA	1.07
ACGTCGATGC	1.11
TTGCTCTGCC	1.01
AGTGTAGCTG	1
ATCCTCCTTA	1.12

Sequence	switch fluorescence ratio
AGTGCAATTA	1.08
CTGATCGCAG	5.78
GGAGGAAGCA	2.18
GATTTGGGAG	1.01
TCCCGAGTAC	1.36
ACCCTAACTA	1.06
TCCGTATCAG	0.978
CTCAGATAGT	0.996
AATGTGTAGC	1.01
TCTCATAAAG	1.02
CCGGTGACAC	1.38
CAAGGTTTTC	1
ACAGAGGATA	1.03
CAAGGTACAG	1.08
GTAATTAAGT	0.978
TCGCAGGTCG	1.02
TTCCTTTTG	0.967
ATCAATTGGG	0.966
TGATCTGACG	1
GCCACTATGA	0.993
CCTGGGGACA	1.02
TCATTTAAGT	1
GCTTATCTAT	0.999
AAGCGGTCTG	0.994
AAGTAGGGAC	0.963
ATTACGTGAG	1.02

Sequence	switch fluorescence ratio
CCGGCACTTA	1.12
CTTCCGACAA	3.65
ACCGATGGGC	1.02
CTCGCCGTGG	0.999
GTTCCGAATT	1.28
TTGGTCGCAT	0.993
CAGATCGGAG	1.03
GTGTCCATTA	1.01
GTTCGAGTTC	0.986
GTATTATATG	0.972
GTTATCCATT	1.01
GGGGTAACCA	0.983
TTAACTAATG	1.08
GCCCAGAACA	0.993
CTTGGTTATA	1
TGACCTCAAG	0.97
TAAACAGTTG	1.02
CTCGATTTTC	1.03
ACATGAGCAC	1.1

Reference: the supplement of paper PMC10126150
